Experimental data published in publication PMC6919601, “Identification of Plasmodium dipeptidyl aminopeptidase allosteric inhibitors by high throughput screening” (PLoS ONE, 2019).
Among all 110,000 compounds or so, about 230 (0.21%) showed an effect of 50% or more. The list shows a part of the results.

What follows are molecules tested against DPAP1 (Plasmodium falciparum, UniProt Q8IIJ9) (assay: primary screen, percent inhibition; read by cleavage of a fluorogenic dipeptide substrate; higher = more effect of the substance).
Set-up: species or system P. falciparum D10 trophozoite lysates; single well
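Further: 30 min substrate incubation versus DMSO and 10 µM JCP410 controls.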

Chain of DPAP1 (Q8IIJ9 whole entry, looked up): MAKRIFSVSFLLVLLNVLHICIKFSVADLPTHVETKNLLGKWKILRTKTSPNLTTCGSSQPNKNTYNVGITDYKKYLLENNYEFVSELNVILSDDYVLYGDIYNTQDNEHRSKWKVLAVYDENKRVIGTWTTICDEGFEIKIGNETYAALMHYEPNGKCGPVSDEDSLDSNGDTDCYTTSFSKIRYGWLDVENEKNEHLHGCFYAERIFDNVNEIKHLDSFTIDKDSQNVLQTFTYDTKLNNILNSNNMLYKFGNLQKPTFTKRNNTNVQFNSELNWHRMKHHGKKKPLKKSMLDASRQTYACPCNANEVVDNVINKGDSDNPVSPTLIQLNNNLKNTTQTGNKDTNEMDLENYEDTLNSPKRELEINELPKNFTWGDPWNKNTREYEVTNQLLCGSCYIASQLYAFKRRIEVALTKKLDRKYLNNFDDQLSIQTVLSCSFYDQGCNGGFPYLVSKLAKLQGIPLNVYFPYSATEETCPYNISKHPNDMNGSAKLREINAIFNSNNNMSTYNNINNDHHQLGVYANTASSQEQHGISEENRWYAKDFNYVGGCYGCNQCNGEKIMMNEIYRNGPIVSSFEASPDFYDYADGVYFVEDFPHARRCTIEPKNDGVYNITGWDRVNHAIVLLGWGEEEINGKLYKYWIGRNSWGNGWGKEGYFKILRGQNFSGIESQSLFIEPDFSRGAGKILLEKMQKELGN

Row | SMILES | % Inhibition @ 10 uM
1 | COc1cc(C(=O)NCCC(=O)NC(C)C)cc(OC)c1OC | -0.519%
2 | CCOC(=O)c1c(-n2ncnc2-c2ccncc2)sc2c1CCCC2 | 4.74%
3 | CN(CC(=O)NC1CCCC1)S(=O)(=O)c1ccc2[nH]c3c(c2c1)CCCC3 | -2.77%
4 | CCN1CCN(C(=O)c2sc3cc(Cl)ccc3c2Cl)CC1 | -2.88%
5 | Cc1cc(-c2ccc(N)cc2)nc2ccc3ccccc3c12 | 52.7%
6 | Cc1ccc(OCC(=O)N2CCC(C)CC2)cc1C | 4.27%
7 | Cc1ccc(C2C3=C(CC(C)(C)CC3=O)N(CCO)C3=C2C(=O)CC(C)(C)C3)cc1 | 1.91%
8 | O=C1C2C3CCC(C3)C2C(=O)N1c1ccc(Br)cc1 (stereo not drawn) | -5.98%
9 | O=C(NC1CC1)c1ccc(CSc2nc3cccnc3n2Cc2cccc(F)c2)cc1 | 5.62%
10 | CC(O)(C(=O)O)c1cccc2c1sc1ccccc12 (stereo not drawn) | -4.72%
11 | COc1ccc(CNC(=O)c2sc3nc4c(c(C(F)(F)F)c3c2N)CCC4)cc1OC | 3.93%
12 | Cc1ccc(S(=O)(=O)N(CC(=O)Nc2ccc3c(c2)OCO3)c2ccc(C)cc2C)cc1 | 1.62%
13 | CC(CCN1CCN(CCO)CC1)c1ccccc1 (stereo not drawn) | -5.42%
14 | C(#Cc1ccccc1)CN1CCN(C/C=C/c2ccccc2)CC1 | -1.72%
15 | Cc1c(C)n(C)c2ccc(C(=O)N3CCC4(CC3)OCCO4)cc12 | 0.399%
16 | O=c1c(Cl)c(NCc2ccccc2)cnn1C12CC3CC(CC(C3)C1)C2 | -4.85%
17 | O=C(Nc1ccccc1)c1cc(-c2cccs2)nc2ccccc12 | -3.27%
18 | Cc1ccn2cc(CNC(=O)c3cccc(Cl)c3)nc2c1 | -9.28%
19 | COC(=O)c1nnn(-c2ccc(F)c(Cl)c2)c1C(=O)OC | -1.58%
20 | CCOc1ccc(-n2c(C)cc(CO)c2C)cc1 | 3.73%
21 | CCOC(=O)c1c(C)[nH]c(C)c1S(=O)(=O)NCCCN1CCc2ccccc2C1 | 2.24%

Row | SMILES | % Inhibition @ 10 uM
22 | Cc1ccc(S(=O)(=O)N(C)c2ccc(C(=O)Nc3cccnc3)cc2)cc1 | -5.54%
23 | Cc1ccc(CNc2cc(-c3ccccc3)nc3nncn23)cc1 | -0.808%
24 | CCCC1=NN2C(=N)/C(=C/c3ccc(OS(=O)(=O)c4ccccc4)c(OC)c3)C(=O)N=C2S1 | 0.685%
25 | O=C(c1ccccc1)c1ccc(NC(=O)c2ccco2)cc1 | 0.907%
26 | CC1CCCCN1C/C=C/c1ccc(N(C)C)cc1 (stereo not drawn) | -3.15%
27 | O=C(c1ccc(CS(=O)(=O)c2ccc(Br)cc2)o1)N1CCN(c2ncccn2)CC1 | 6.95%
28 | CCOC(=O)C1CCCCN1Cc1cc(C)c(OC)cc1C (stereo not drawn) | -3.65%
29 | CC(C)c1ccccc1NC(=O)c1ccc(Br)o1 | -1.56%
30 | COc1ccc(S(=O)(=O)N(CC(=O)Nc2ccc(CC#N)cc2)c2ccc(Cl)cc2)cc1 | -4.14%
31 | COc1ccc(CN2CCN(c3cccc(C)c3C)CC2)c2ccccc12 | 0.0657%
32 | CCOc1ccc(OCc2cccc(C(=O)Nc3cc(C)on3)c2)cc1 | 0.709%
33 | COc1ccc(-n2nnnc2S(=O)(=O)CC(=O)N2CCCCC2)cc1 | -4.35%
34 | O=C(CCN1CCCC1)N1N=C(c2ccc(Cl)cc2)CC1c1ccco1 (stereo not drawn) | 2.56%
35 | O=C1c2ccccc2-c2nc3nonc3nc21 | 32.5%
36 | CCOc1ccccc1C(=O)Nc1ccc(S(=O)(=O)N2CCC(C)CC2)cc1 | 1.79%
37 | O=C(O)C1CCN(C(=O)c2ccccc2F)CC1 | -0.992%
38 | Cc1cc(C(F)F)n2nc(C(=O)Nc3ccc(C)c(C)c3)nc2n1 | -1.22%
39 | O=C(NCCN1CCCC1)c1ccc(CSc2nc3cccnc3n2Cc2ccc(F)cc2)cc1 | -0.878%
40 | COc1ccc(OC)c(CNC(=O)c2cc3c(-c4ccccc4F)nn(C)c3s2)c1 | -1.43%
41 | O=C(Cn1nc(Cc2ccncc2)c2ccccc2c1=O)NCCCN1CCCCC1 | -0.431%
42 | CCC(C)NC(=O)CCc1nc(-c2ccc(C)cc2)no1 (stereo not drawn) | 6.64%

Row | SMILES | % Inhibition @ 10 uM
43 | O=c1c2ccccc2n2c(-c3ccc(O)cc3)nnc2n1Cc1ccccc1Cl | -5.37%
44 | CN1CCC(N2CCN(C)CC2)CC1 | -1.81%
45 | N=C1/C(=C\c2cccc3ccccc23)C(=O)N=C2SC(N3CCOCC3)=NN12 | 6.2%
46 | O=C(Nc1c(Cl)cc(Cl)cc1C(=O)NCc1ccccc1)c1ccco1 | -0.67%
47 | CCOc1ccc2c(c1)sc1nc(-c3cc4cc(Cl)ccc4oc3=O)cn12 | 3.05%
48 | C=CCn1c(SCC(=O)N2CCCCC2)nc2sc(C)c(C)c2c1=O | -0.725%
49 | CC(C)CCNS(=O)(=O)c1cc(Br)cnc1N | -2.84%
50 | O=C(c1ccc(Cl)cc1)N1CCCCC(Sc2nnc3ccccn23)C1=O (stereo not drawn) | 0.147%
51 | CC(C)CNC(=O)CCc1nc(-c2ccc(C(C)(C)C)cc2)no1 | -4.95%
52 | COc1cccc(C2=NOC(C(=O)NCc3ccccc3)C2)c1 (stereo not drawn) | -0.0115%
53 | COCc1cc(C)nc2sc3c(c12)NC(c1ccccc1O)NC3=O (stereo not drawn) | 0.121%
54 | N#Cc1c(NC(=S)NC(=O)C23CC4CC(CC(C4)C2)C3)sc2c1CCCC2 | 10.7%
55 | Clc1cccc(-c2nc(N3CCC4(CC3)OCCO4)nc3c2COc2ccccc2-3)c1 | -6.59%
56 | COc1ccc(-n2nc3c(N4CCC(C(=O)NCCC5=CCCCC5)CC4)nnc(C)c3c2C)cc1 | 4.21%
57 | COc1cccc2cc(-c3nc4ccccc4o3)c(=O)oc12 | -0.969%
58 | CC1=C(C(=O)N2CCCCC2)C(c2ccc3c(c2)OCO3)C2=C(O)CC(C)(C)CC2=N1 (stereo not drawn) | 2.51%
59 | CC(C)Oc1ccc(-c2cc(C(=O)NC3CC3)c3ccccc3n2)cc1 | -7.93%
60 | CC(C)Cn1c(CN2CC(C)OC(C)C2)nc2c1c(=O)[nH]c(=O)n2C (stereo not drawn) | -8.42%
61 | CCOC(=O)C1=C(CS(=O)(=O)c2ccccc2)NC(=O)NC1c1ccccc1C (stereo not drawn) | -2.16%
62 | CNC(=O)/C(C#N)=C/c1c(Oc2cccc(C)c2C)nc2ccccn2c1=O | -1.43%
63 | CC1CC(C)CN(CCNC(=O)c2cc3ccc4cccnc4c3[nH]2)C1 (stereo not drawn) | -1.07%
